Data as given in PubChem BioAssay AID485294 (National Center for Advancing Translational Sciences (NCATS), 2010).
Screen size: about 370,000 compounds; about 150 (0.041%) were called active. This list was built around the results that the source calls inconclusive (neither active nor inactive); the mix of calls is not that of the screen. Calls come from the whole dose curve; as a rule, active = well fitted inhibition curve with a large enough effect; inconclusive = small, poorly fitted or top-dose-only effect; inactive = flat fitted curve, though single readings scatter. Potencies of inconclusive entries are left out as doubtful fits.

Molecular target: Beta-lactamase (Escherichia coli (strain K12)) (UniProt P00811)
Test: qHTS Inhibitors of AmpC Beta-Lactamase (assay with detergent); note: nearly all actives have a fitted effect of over 25% in size
Conditions: AmpC hydrolysis of nitrocefin, absorbance 480 nm, 0.01% Triton; series mostly up to 114 µM
Summary of the method: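 20 mM phosphate pH 7.0 + 0.01% (detergent screen) or 0.0001% Triton X-100; 5.3 nM AmpC reagent; cpd preinc 15 min RT; nitrocefin (800 uM stock) to start; A480 q20 s × 4 min; Activity was normalised to no-enzyme and no-compound control wells.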
Potency is the fitted concentration of half-maximal effect; tags give direction and shape of the fitted curve.

Chain of UniProt P00811 (P00811 whole entry, looked up): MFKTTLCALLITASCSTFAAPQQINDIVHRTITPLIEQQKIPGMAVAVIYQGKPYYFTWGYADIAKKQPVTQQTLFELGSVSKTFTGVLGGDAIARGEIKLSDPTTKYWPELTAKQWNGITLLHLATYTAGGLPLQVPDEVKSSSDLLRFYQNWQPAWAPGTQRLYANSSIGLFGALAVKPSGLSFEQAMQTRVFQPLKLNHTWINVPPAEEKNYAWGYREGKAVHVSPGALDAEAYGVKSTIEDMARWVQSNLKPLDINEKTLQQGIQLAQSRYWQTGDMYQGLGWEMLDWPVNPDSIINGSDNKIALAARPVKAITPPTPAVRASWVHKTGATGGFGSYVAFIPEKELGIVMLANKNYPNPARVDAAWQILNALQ

SMILES | Potency
CCc1noc(C)c1C(=O)N(CCC(C)C)c1c(N)n(Cc2ccccc2)c(=O)[nH]c1=O | inconclusive [inhibitor, full curve, poor fit]
Cc1ccc(NC(=O)[C@@H](NC(=O)N2C[C@H]3C[C@@H](C2)c2cccc(=O)n2C3)C(C)C)cc1 | inconclusive [inhibitor, full curve]
CC(C(=O)NC1CCCC1)N(C(=O)c1snc(C(N)=O)c1N)c1ccc2c(c1)OCCO2 (stereo not drawn) | inactive
CCOC(=O)N1CCN(S(=O)(=O)c2ccc(C(=O)NNc3nc4c(C)cc(C)cc4s3)cc2)CC1 | inconclusive [inhibitor, partial curve, poor fit]
COCCn1nnnc1SCC(=O)N1CCCCC1 | inconclusive [inhibitor, partial curve, poor fit]
CCc1ccc(-c2nc(CSCC(=O)N3CCN(c4ncccn4)CC3)c(C)o2)cc1 | inconclusive [inhibitor, full curve, poor fit]
COC(=O)[C@H](CC(C)C)NS(=O)(=O)c1ccccc1 | inconclusive [inhibitor, partial curve, poor fit]
NS(=O)(=O)c1ccc(NC(=S)NC(=O)c2ccco2)cc1 | inactive
COCCn1c(Cc2ccccc2)nnc1SC(C)C(=O)NC1CC1 (stereo not drawn) | inactive
Cc1ccc2ccccc2c1NC(=O)CNC1CCCCC1 | inconclusive [inhibitor, partial curve]
O=C(NCCOc1cccc(Oc2ccccc2)c1)c1cc(-n2cnnc2)ccc1Cl | inactive
O=C(NCc1ccccc1Cl)c1ccncc1 | inconclusive [inhibitor, full curve, poor fit]
Cc1ccccc1S(=O)(=O)c1c(C)cc(C)n(CC(C)C)c1=O | inconclusive [inhibitor, single point]
O=C(Cc1n[nH]c(=O)c2ccccc12)Nc1cc(C(F)(F)F)ccc1-n1cncn1 | inconclusive [inhibitor, partial curve, poor fit]
O=[N+]([O-])c1ccc(Cl)c2c1C1C=CCC1C(c1ccccn1)N2 (stereo not drawn) | inactive
COC(=O)c1ccc(N2CCN(C)CC2)c(NC(=O)c2cc3ccccc3o2)c1 | inconclusive [inhibitor, partial curve, poor fit]
C#Cc1ccc([C@@H]2C=C(C(=O)Nc3ccccc3)O[C@H](OCC)[C@H]2CCCO)cc1 | inactive
CN(CC(=O)Nc1ccccc1Cl)C(=O)C1CCN(S(=O)(=O)c2ccc3c(c2)OCCO3)CC1 | inconclusive [inhibitor, full curve, poor fit]
